Laboratory results: PubChem BioAssay (NCATS)
The shares of active, inactive and inconclusive entries below differ from those in the screen. A call without a number means that no potency is given here. Potencies beside an inconclusive call are fits to weak or partial responses and may not hold up. The source made the active and inactive calls. Calls follow the shape of the dose curve; as a rule, active = well fitted inhibition curve with a large enough effect; inconclusive = small, poorly fitted or top-dose-only effect; inactive = flat fitted curve, though single readings scatter.

System: MCC-26
Assay: qHTS assay to identify novel small-molecules to repurpose for Merkel cell carcinoma treatment (AID 1296009); also: nearly all actives have a fitted effect of over 60% in size
Details: MCC and control cell lines, CellTiter-Glo viability, 72 h; series mostly up to 46 µM
Excerpt: MCC is a rare and aggressive neuroendocrine skin cancer with limited treatment options. Approximately 80% of MCCs have the Merkel cell polyomavirus (MCPyV) DNA integrated into the host genome (virus-positive: VP-MCC) and viral oncogenes drive oncogenesis. The remaining MCCs are virus-negative (VN-MCC) and are caused by UV mutagenesis. To identify novel treatments for VP-MCC and/or VN-MCC we screened three VP-MCC cell lines (WAGA, MKL-1, MKL-2), three VN-MCC cell lines (MCC-13, MCC-26, UISO), and four immortalized, non-transformed control cell lines (HaCaT, HEK293T, CRL7250, NIH-3T3) against ~2,400 compounds in the NCGC Pharmaceutical Collection (NPC) and ~1,900 compounds in the Mechanism Interrogation PlatE (MiPE). Using cell viability as a readout (CellTiter-Glo assay) we found both overlapping and distinct drugs that can be repurposed for the treatment of VP-MCC and VN-MCC.
A high-throughput screen was conducted in 1536-well white flat bottom plates (Corning) on a Kalypsys robotic system. Cell lines WAGA, MKL-1, MKL-2, MCC-13, MCC-26, UISO, HaCaT, HEK293T, CRL7250, and NIH-3T3 were screened against 2 small molecule annotated drug libraries NPC and MIPE in dose response (8 and 11 pt. respectively) measuring cell viability after 72 hours of incubation. […] A 1,536 pintool (Kalypsys) was used to transfer 23 nL of compound in DMSO to the 1,536-well assay plates. After 72 hr incubation at 37 degree celsius, 2.5 uL of CellTiter-Glo (Promega) was dispensed into each well using a BiorapTR. Plates were incubated at room temperature for 10 min, transferred to a ViewLux (PerkinElmer) and the luminescence was recorded using an exposure time of 2 seconds. Relative luminescence units (RLUs) were normalized to in-plate controls (no cells as a positive (cytotoxicity) control, DMSO as negative control) and the normalized data was processed using NCATS in-house software.
Potency is read from the fitted curve at half-maximal effect; tags tell the direction and shape of the fitted curve.

SMILES | Potency
COc1cc(S(N)(=O)=O)cc(C(=O)O)c1OC | inconclusive: 21.1 µM [inhibitor, single point]
OC[C@@H](O)[C@@H](O[C@@H]1O[C@H](CO)[C@H](O)[C@H](O)[C@H]1O)[C@H](O)[C@@H](O)CO | inactive
CCN1CCN(C(=O)N[C@@H](C(=O)N[C@@H]2C(=O)N3[C@@H]2SC(C)(C)[C@H]3C(=O)O)c2ccccc2)C(=O)C1=O | inactive
CCCCCCOC(=O)NC(=N)c1ccc(NCc2nc3cc(C(=O)N(CCC(=O)OCC)c4ccccn4)ccc3n2C)cc1 | inactive
Nc1nc2ncc(CNc3ccc(C(=O)N[C@@H](CCC(=O)O)C(=O)O)cc3)nc2c(=O)[nH]1 | inactive
CO[C@@H]1[C@H](N(C)C(=O)c2ccccc2)C[C@H]2O[C@]1(C)n1c3ccccc3c3c4c(c5c6ccccc6n2c5c31)C(=O)NC4 | active: 4.69 µM
C[C@H](NC(CCc1ccccc1)C(=O)O)C(=O)N1CCC[C@H]1C(=O)O (some centres not stated) | inactive
O=C(O)Cc1ccc(OCCNC[C@H](O)c2ccccc2)cc1 | inconclusive: 33.5 µM [inhibitor, single point]
CC(=O)c1ccc(O)c(C(N)=O)c1 | inactive
CC(C)Cc1ccc(CC(=O)O)cc1 | inactive
CCOC(=O)OCC/C(SC(=O)OCC)=C(\C)N(C=O)Cc1cnc(C)nc1N | inactive
CCCCCOC(=O)Nc1nc(=O)n([C@@H]2O[C@H](C)[C@@H](O)[C@H]2O)cc1F | inactive
CC(=O)N1CCN(c2ccc(O)cc2)CC1 | inactive
C=C(C)[C@@H]1CC[C@]2(C(=O)O)CC[C@]3(C)[C@H](CC[C@@H]4[C@@]5(C)CC[C@H](O)C(C)(C)[C@@H]5CC[C@]43C)[C@@H]12 | inconclusive: 7.43 µM [inhibitor, partial curve]
C[C@H]1NCc2cc(-c3ccc4c(=O)c(C(=O)O)cn(C5CC5)c4c3OC(F)F)ccc21 | inactive
Cc1cn2cc(C(=O)N(C)CCO)cc(N[C@@H]3CCOc4cccc(C)c43)c2n1 | inconclusive: 33.2 µM [inhibitor, single point]
CC(C)(C)C(=O)NCCCC(=O)O | inactive
CC(=O)N(c1onc(C)c1C)S(=O)(=O)c1ccc(N)cc1 | inactive
CNC(=O)CN1CCC(Oc2cc3c(Nc4cccc(Cl)c4F)ncnc3cc2OC)CC1 | active: 2.64 µM
CCCCCCCC(=O)OCC(COC(=O)CCCCCCC)OC(=O)CCCCCCC | inactive
CC(=O)Nc1ccc(OCC(O)CNC(C)C)cc1 (configuration not stated) | inconclusive: 33.5 µM [inhibitor, single point]
CC(=O)CC(c1ccc([N+](=O)[O-])cc1)c1c(O)c2ccccc2oc1=O (configuration not stated) | inactive
O=c1[nH]c2ccccc2c(=O)n1CCCl | inactive
COc1ccc([C@@H]2CNC(=O)C2)cc1OC1CCCC1 | inactive
NC(=O)NC1NC(=O)NC1=O (configuration not stated) | inactive
OC1(c2ccccc2)CCNCC1 | inconclusive: 5.31 µM [inhibitor, single point]
O=C(O)CCc1nc2ccccc2[nH]1 | inactive
